{"source": "the supplement of paper PMC12632987", "binders": {"B1": {"name": "GBRAP_128_3356 (protein)", "chain": "LDEAFLAEVRALLDRMVASDVAETYALAKELLARMATASPEEREAAVELMHEHLPKLTAEKLDAVADAIDEMAPAFDPYTAELMAEVRVDALNEAEEKEE"}, "B2": {"name": "GBRAP_52_6066 (protein)", "chain": "SEARIEALAEAITAAVAAGDKEGALALIAEAIKELSLEEIKRMLELAAEKVAKLGEEQHELFVDVLDEAEDLLIEAGISEEDALLIVGSAEAALAKAVAA"}, "B3": {"name": "GBRAP_160_4856 (protein)", "chain": "SEKLEKALEIVREEREEALAAVEEAPASQRAAIAEAIALQAIDELEEEGLITEETEEKLLEVVDELRAELEANADASVEEWKAMVREAFERMEEIIKELS"}, "B4": {"name": "GBRAP_53_6406 (protein)", "chain": "KEEEIEKLKKEILELTEKATKAGPEERKKLVEEIGKKLKELKKAGASDEEITELAKEVAEKLKKAGADPSDHVTLAQAAADLGLEEATAVFAEAAVEDLE"}, "B5": {"name": "GBRAP_80_6846 (protein)", "chain": "AAARLAAELAALKALLPEVAEDAKEAVALARELGVPDADIADYLAALNELAKLDPELAAALLKELLADLREEKAEGDSENALAVVRGYTGEALMEAEELE"}, "B6": {"name": "GBRAP_48_5823 (protein)", "chain": "MEIDEELIEKLVEEKVEEMYELYEEAKKAGLSDEEILKLIRAELGDLALDLEEAGFTKAADWLRERENRDELAKKLYEFFKKGKIEEAKKYLFEELKKVE"}, "B7": {"name": "GBRAP_166_4932 (protein)", "chain": "SLEEIYEKAKKEVNELAEKAKTADEEELIELALEAEEILKEAKEKGLSKEELKEILLDALSLLKDNPEKALAFARYIEAAAGDDEELIDVIDEAKKEFLK"}, "B8": {"name": "GBRAP_78_6697 (protein)", "chain": "EVEELLEKALELLDQALKLSKQLPEDLRNEVTYHLVEAITDLEEAIEEGADLEELKEALEHLDKAIALVKANDTPLTQPLLKLLTEAKKLLEEAIKKLEE"}, "B9": {"name": "GBRAP_52_6342 (protein)", "chain": "SEERIRAVAEAIAAAIAAGDLDGAVELTRKAVKEFSREEVREMMRLTAELAVERLPDRPDLVMEAAFRIADVIEEELGDEVLADDFEAYTARLLVERQAA"}, "B10": {"name": "GBRAP_14_3847 (protein)", "chain": "VEELVKAVKETAEELAKFVKEVAPEKAEEIIAKVKELAEEIIKKIKEEKLNKEEVDELMEKFAEELAKYLKEKGYLSDTEIAAVKAHIISEGLLKLEEIE"}, "B11": {"name": "GBRAP_52_6275 (protein)", "chain": "MEEEAERLAEEFIRVALEGSEEEIREFARRLVEEKSEELIARVLEIVVEKAEELNAEEIEKLLEAVLILEGELEEAGRDPLPAQDAAARLAKLHEEKLKE"}, "B12": {"name": "GBRAP_128_3563 (protein)", "chain": "SVEEAVAKAEELLEKIKNSGPEEARKYAKELAELLAAASPEAREAITETILSRLPELSPEKLDILADVFAEARPAADPATAEALAEIQVEALNEREEKEE"}, "B13": {"name": "GBRAP_160_4144 (protein)", "chain": "SPELEKLMKEIKEIAEEALKLIEGETPEEAKTIAKVAFGEIVMLVDSSEAVSEETKDKVGAVADEAEATLDANPDLTVEEVKALLKEATEKILAILKEEK"}, "B14": {"name": "GBRAP_160_4666 (protein)", "chain": "MEELEKLMKELEEIAKEAVEMTKGQSHEERVAIIRVMKGEIILELEESKIATDEVVDYADELGDELIAYVAANPDLTEEELQELLDKMLKEIEEKLKEEL"}, "B15": {"name": "GBRAP_160_4703 (protein)", "chain": "SETAEKLKKFVEEEFEKAKELIKGESKEQRAIIVEGTIGEILMEFAENPEVTDELEDEVDEIGDELVEEILEDEDITDEELDELIDEAVEKMKEAIDKHL"}, "B16": {"name": "GBRAP_184_5231 (protein)", "chain": "KLLDVTVEAADAEELAAGLAAARAEAEAAGARLRLLVKVEKLTPEKAATLAAAIRELAAAGLLELVGVESSEPISDEIIDTLLAAADAAGVRLVIANPDI"}, "B17": {"name": "GBRAP_39_5684 (protein)", "chain": "EKKEEDEDTVSYLEGLAAAYLYETGISLEEAFERAKKILLKLAKEHPELKELIEKLIKLAEEKGEEAKLALIGVAVLVEQGTPLEKIKEDIERVINYFES"}, "B18": {"name": "GBRAP_186_5398 (protein)", "chain": "TEAELAGIDEAEALAKEVGADVLLVVKLEGDLESIKEAALREIEAAAAYSKEFGKKVVVGIITDNSEEDTEELRKIAEERVKELRKEEGVDIHVVVVNAP"}, "B19": {"name": "GBRAP_128_3193 (protein)", "chain": "SEAELEAMTEELIEIVKTKDEEEVEAAVRAVLAAIEAAGLDLVDAFTEIAEKVAESLDAENVEKFGRAAIAAAATIEGKGEELARLVEAIVLTEIEEKKE"}}, "note": "The full ranking holds about 4,500 sequences; the median of “median log2 fold change of GCK-ALFA target abundance (FLAG IP / Myc IP barcode read proportion)” is about 0.078, and the lowest 2% start at about -0.6. The list shows a part of the results.", "data": [{"molecular_target": "GABARAP, O95166", "sequence (O95166 whole entry, the tested form may be a part)": "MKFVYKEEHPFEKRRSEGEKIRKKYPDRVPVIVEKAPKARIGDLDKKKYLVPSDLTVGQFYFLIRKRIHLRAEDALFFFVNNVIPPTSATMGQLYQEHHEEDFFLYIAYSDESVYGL", "assay": "median log2 fold change of GCK-ALFA target abundance (FLAG IP / Myc IP barcode read proportion) (log2 ratio); each designed protein is fused to an ALFA-tag nanobody in HEK293 cells to bring the named protein to FLAG-tagged glucokinase (GCK); Myc marks an untargeted standard; higher = target protein stabilised (more abundant)", "conditions": "target protein: 3xFLAG-MCP-GCK-ALFA reporter; HEK293 landing pad (RPLP)", "how_it_was_run": "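Binders fused to an ALFA nanobody were recombined as a library into HEK293 landing-pad cells, which were induced with 2 μg mL^−1 doxycycline and then transfected to express a FLAG-tagged target and a Myc-tagged standard. After 48 h, circular RNA barcodes recovered by anti-FLAG and anti-Myc immunoprecipitation of lysates were reverse transcribed, amplified and sequenced. Each binder's target abundance is the median log2 ratio of FLAG to Myc barcode read proportions, from barcodes present at ≥10^−7 in both replicates, binders carrying ≥3 barcodes per replicate, a 10^−6 pseudocount and pooled replicates.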", "values": [{"binder": "B1", "median log2 fold change": 0.111}, {"binder": "B2", "median log2 fold change": -0.486}, {"binder": "B3", "median log2 fold change": 0.124}, {"binder": "B4", "median log2 fold change": 0.254}, {"binder": "B5", "median log2 fold change": -0.698}, {"binder": "B6", "median log2 fold change": 0.173}, {"binder": "B7", "median log2 fold change": 0.187}, {"binder": "B8", "median log2 fold change": 0.0855}, {"binder": "B9", "median log2 fold change": -0.225}, {"binder": "B10", "median log2 fold change": 0.253}, {"binder": "B11", "median log2 fold change": 0.0823}, {"binder": "B12", "median log2 fold change": 0.232}, {"binder": "B13", "median log2 fold change": 0.18}, {"binder": "B14", "median log2 fold change": -1.11}, {"binder": "B15", "median log2 fold change": -0.438}, {"binder": "B16", "median log2 fold change": 0.203}, {"binder": "B17", "median log2 fold change": 0.28}, {"binder": "B18", "median log2 fold change": 0.0649}, {"binder": "B19", "median log2 fold change": 0.286}]}]}
